{"source": "PubChem BioAssay AID1468", "about": "(National Center for Advancing Translational Sciences (NCATS), 2008)", "note": "Screen size: about 280,000 compounds; about 1,100 (0.39%) were called active. The inconclusive results got no clear call from the source; some entries with a clear call stand among them for comparison. The call rests on the fitted dose curve; in most records, active means well fitted inhibition curve with a large enough effect; inconclusive means small, poorly fitted or top-dose-only effect, or effect the other way; inactive means flat fitted curve, though single readings scatter. Potencies of inconclusive entries are left out as doubtful fits. On the % scale 0 is the no-effect control and ±100 the full control effect; potency means the concentration at half of the fitted maximal effect; tags describe the fitted curve by direction and shape.", "data": [{"biological_target": "Microtubule-associated protein tau (Homo sapiens) (UniProt P10636)", "sequence (P10636 whole entry, looked up)": "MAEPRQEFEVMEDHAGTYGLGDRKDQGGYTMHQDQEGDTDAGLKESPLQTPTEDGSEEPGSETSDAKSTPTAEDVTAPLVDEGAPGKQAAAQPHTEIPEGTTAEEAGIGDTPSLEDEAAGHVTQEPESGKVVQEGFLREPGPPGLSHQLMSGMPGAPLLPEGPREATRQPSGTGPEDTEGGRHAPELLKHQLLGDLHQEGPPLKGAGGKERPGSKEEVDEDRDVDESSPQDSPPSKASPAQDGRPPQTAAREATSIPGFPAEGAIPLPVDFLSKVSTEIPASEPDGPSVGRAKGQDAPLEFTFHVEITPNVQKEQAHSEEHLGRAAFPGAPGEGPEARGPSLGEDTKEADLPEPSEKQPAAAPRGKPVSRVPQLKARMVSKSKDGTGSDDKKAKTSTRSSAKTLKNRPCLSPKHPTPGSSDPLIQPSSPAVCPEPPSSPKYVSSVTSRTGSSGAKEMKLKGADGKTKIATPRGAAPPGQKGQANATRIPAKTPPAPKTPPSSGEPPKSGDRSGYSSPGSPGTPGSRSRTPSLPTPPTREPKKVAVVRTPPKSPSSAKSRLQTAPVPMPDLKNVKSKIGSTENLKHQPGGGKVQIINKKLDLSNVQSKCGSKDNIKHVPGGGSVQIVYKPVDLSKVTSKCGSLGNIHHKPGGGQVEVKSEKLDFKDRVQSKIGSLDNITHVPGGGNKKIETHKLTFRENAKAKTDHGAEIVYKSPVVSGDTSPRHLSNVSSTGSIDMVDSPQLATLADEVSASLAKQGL", "experiment": "qHTS for Inhibitors of Tau Fibril Formation, Fluorescence Polarization; further: nearly all actives have a fitted effect of over 55% in size", "conditions": "K18 P301L tau heparin fibrillization, Alexa594 FP, 6 h; series mostly up to 57.7 µM; activity, negative = inhibition: at the top concentration", "method_in_brief": "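Compound effects on tau fibrillization are measured by Alexa 594 fluorescence polarization (ex 555, em 632 nm). K18 P301L tau is used at 15 uM with 0.24 uM labeled tracer, and 20 uM heparin induces aggregation over 6 hr at 37 C.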", "values": [{"smiles": "COCCNC(=O)CSc1nc(-c2ccc(F)cc2)[nH]c1-c1ccc(Cl)cc1", "Potency": "inconclusive [activator, full curve]"}, {"smiles": "CCOc1ccc(C(=O)Nc2ccc(S(=O)(=O)N(Cc3ccccc3)c3ccccc3)cc2)cc1", "Potency": "inconclusive [inhibitor, partial curve]"}, {"smiles": "Cc1cc(N2CCCCC2)nc2ccc(NC(=O)c3ccc(F)cc3)cc12", "Potency": "inconclusive [activator, partial curve, poor fit]"}, {"smiles": "Fc1ccccc1-c1nc(NCc2ccccc2)c2ccccc2n1", "Potency": "inconclusive [inhibitor, partial curve]"}, {"smiles": "O=C(CSc1nc2cc3ccccc3cc2[nH]1)Nc1cccc(C(F)(F)F)c1", "Potency": "active: 3.16 µM"}, {"smiles": "Cc1ccccc1C(=O)Oc1ccc(Sc2ccc(O)cc2)cc1", "Potency": "active: 25.1 µM"}, {"smiles": "CCn1c(SCc2nc3ccccc3[nH]2)nnc1-c1cccnc1", "Potency": "inconclusive [inhibitor, single point]"}, {"smiles": "Nc1ccccc1Nc1cc(-c2ccccc2)nn1-c1cccc(Cl)c1", "Potency": "inconclusive [activator, partial curve, poor fit]"}, {"smiles": "O=C(Nc1cccc(C(F)(F)F)c1)c1csc(-c2ccncc2)n1", "activity, negative = inhibition": "inactive: 2.72%"}, {"smiles": "OCCNc1nc(-c2ccccc2)nc2c1oc1ccccc12", "Potency": "inconclusive [inhibitor, single point]"}, {"smiles": "O=C(COc1ccc(Cl)cc1)N1CCN(S(=O)(=O)c2ccccc2)CC1", "activity, negative = inhibition": "inactive: 3.53%"}, {"smiles": "Cc1ccccc1OCC(=O)N/N=C/c1cc2ccccc2nc1Cl", "Potency": "inconclusive [inhibitor, partial curve, poor fit]"}, {"smiles": "COc1ccc(CNC(=O)CCC(=O)N2CCSc3ccccc32)cc1", "activity, negative = inhibition": "inactive: 3.31%"}, {"smiles": "N/C(=N\\S(=O)(=O)c1cc(C(F)(F)F)cc(C(F)(F)F)c1)c1ccc(Cl)cc1", "Potency": "inconclusive [inhibitor, partial curve]"}, {"smiles": "CCOC(=O)N1CCN(S(=O)(=O)c2ccc(C(=O)Nc3nnc(C)o3)cc2)CC1", "activity, negative = inhibition": "inactive: -2.27%"}, {"smiles": "COc1ccc(-n2ncc(N(C)n3cccc3)c(Cl)c2=O)cc1", "activity, negative = inhibition": "inactive: -8.75%"}, {"smiles": "COc1ccccc1C1CN(c2ccc(F)cc2F)N=C1c1cccs1", "note": "(stereo unspecified)", "Potency": "inconclusive [activator, single point]"}, {"smiles": "CN(C)S(=O)(=O)c1ccc2nnn(OCC(=O)NC34CC5CC(CC(C5)C3)C4)c2c1", "Potency": "inconclusive [inhibitor, full curve, poor fit]"}, {"smiles": "CC(C)c1ccc(CNc2nc(-c3ccco3)nn2S(=O)(=O)c2ccc3ccccc3c2)cc1", "Potency": "inconclusive [inhibitor, single point]"}, {"smiles": "CCCCN(CCCC)S(=O)(=O)c1ccc(SCC(=O)OCC)c([N+](=O)[O-])c1", "Potency": "inconclusive [activator, partial curve, poor fit]"}, {"smiles": "CC1(C)CC(=O)c2sc(NS(=O)(=O)c3ccc(Br)cc3)nc2C1", "activity, negative = inhibition": "inactive: 1.77%"}, {"smiles": "CCc1ccc(/C=C/C(=O)c2cc(Br)ccc(=O)c2O)cc1", "Potency": "inconclusive [inhibitor, single point]"}, {"smiles": "Cc1ccc2nc(NC(=O)c3ccc(NS(=O)(=O)c4cccs4)cc3)sc2c1", "Potency": "inconclusive [inhibitor, partial curve]"}, {"smiles": "COc1cc2c(cc1OC)C(COc1ccc(F)cc1)N(C(=O)Cc1ccc(F)cc1)CC2", "note": "(stereo unspecified)", "activity, negative = inhibition": "inactive: -4.1%"}, {"smiles": "CSc1nsc(SC)c1C(=O)Nc1ccc(C(C)(C)C)cc1", "Potency": "inconclusive [inhibitor, single point]"}, {"smiles": "O=C(Nc1ccccc1Cl)/C(Cl)=C(\\Cl)S(=O)c1ccccc1", "note": "(stereo unspecified)", "Potency": "inconclusive [inhibitor, partial curve, poor fit]"}, {"smiles": "COc1cc(C(=O)NNC(=S)Nc2ccc(S(N)(=O)=O)cc2)cc(OC)c1OC", "activity, negative = inhibition": "inactive: -1.63%"}, {"smiles": "CC(C)NC(=O)c1ccc(-n2c(-c3ccccc3)cc3c2CCCCC3)cc1", "Potency": "active: 12.6 µM"}, {"smiles": "CCOC(=O)c1[nH]nc(-c2c(O)cc(C)cc2O)c1-c1csc(C)n1", "activity, negative = inhibition": "inactive: 1.12%"}, {"smiles": "Cc1cccc2c(N=Nc3ccc(S(=O)(=O)Nc4cccc(Cl)c4)cc3[N+](=O)[O-])c(O)[nH]c12", "activity, negative = inhibition": "inactive: 3.89%"}, {"smiles": "Cc1cc(C)cc(OCC(=O)Nc2ccc(-c3nc4ccccc4s3)cc2)c1", "activity, negative = inhibition": "inactive: -9.58%"}, {"smiles": "Cc1ccccc1C(=O)Nc1cccc(C(=O)OCc2cc(=O)n3c4c(sc3n2)CCCC4)c1", "activity, negative = inhibition": "inactive: -8.94%"}, {"smiles": "O=C(NCc1ccc(F)cc1)c1cccc2c1C(=O)N(Cc1cccnc1)C2", "activity, negative = inhibition": "inactive: -6.38%"}, {"smiles": "CCCN(Cc1ccccc1)C(=S)Nc1ccc(OCC)cc1", "activity, negative = inhibition": "inactive: 1.09%"}, {"smiles": "CN(C)S(=O)(=O)c1ccc(NC(=O)CSc2nc3ccccc3n2-c2ccccc2)cc1", "Potency": "inconclusive [inhibitor, partial curve]"}, {"smiles": "COc1ccc(NC(=O)c2ccc3c(c2)CCN3S(=O)(=O)c2ccc(C)cc2)cc1Cl", "Potency": "inconclusive [inhibitor, single point]"}, {"smiles": "Clc1nssc1=Nc1ccc(Br)cc1", "Potency": "inconclusive [inhibitor, partial curve]"}, {"smiles": "Cc1c(Cl)cccc1NC(=O)CN1C(=O)COc2ccc(S(=O)(=O)Nc3ccccc3)cc21", "Potency": "inconclusive [inhibitor, partial curve]"}, {"smiles": "O=C(Nc1ccc(Br)cc1)c1cccc(S(=O)(=O)Nc2cnc3ccccc3c2)c1", "Potency": "inconclusive [inhibitor, partial curve]"}, {"smiles": "C[C@H](c1ccccc1)N1C(=O)[C@H]2[C@@H]3[C@H](O)[C@H](O)CC(=O)[C@H]3CC[C@H]2C1=O", "activity, negative = inhibition": "inactive: -1.05% [at 11.6 µM]"}, {"smiles": "CC(C)COC(=O)c1cccc2c1-c1ccccc1/C2=N\\O", "Potency": "active: 28.2 µM"}, {"smiles": "Cc1cc(C)nc(NC(=O)/C=C/c2ccccc2Cl)n1", "activity, negative = inhibition": "inactive: -10.4%"}, {"smiles": "Cc1ccc(N2C(=O)C3ON(c4ccccc4)C(c4ccncc4)C3C2=O)cc1", "note": "(stereo unspecified)", "activity, negative = inhibition": "inactive: 1.03%"}, {"smiles": "CCOC(=O)N1CCC(Nc2cccc(SC)c2)CC1", "activity, negative = inhibition": "inactive: -3.63%"}, {"smiles": "CC(C)c1c(O)ccc2c1CCC1C(C)(C)CCC[C@@]21C", "note": "(stereo partly specified)", "activity, negative = inhibition": "inactive: -13.6%"}, {"smiles": "COc1ccc(NC(=O)c2cn(-c3ccccc3)nc2-c2ccc(C)cc2)cc1", "Potency": "inconclusive [inhibitor, partial curve]"}]}]}
